Test results as given in PubChem BioAssay AID2451 (National Center for Advancing Translational Sciences (NCATS), 2010).
Hit rate of the full screen: of about 290,000 compounds, about 2,100 (0.72%) were called active. The shares of active, inactive and inconclusive entries below differ from those in the screen. The call rests on the fitted dose curve; in most records, active means well fitted inhibition curve with a large enough effect; inconclusive means small, poorly fitted or top-dose-only effect, or effect the other way; inactive means flat fitted curve, though single readings scatter. A potency beside an inconclusive call is a rough fit, not a confirmed value.
Further: nearly all actives have a fitted effect of over 55% in size.
On the % scale 0 is the no-effect control and ±100 the full control effect; potency means the concentration at half of the fitted maximal effect; tags describe the fitted curve by direction and shape.

The compounds below were run against Fructose-bisphosphate aldolase (Giardia intestinalis (strain ATCC 50803 / WB clone C6)) (UniProt A8B2U2) (assay: qHTS Assay for Inhibitors of Fructose-1,6-bisphosphate Aldolase from Giardia Lamblia). Settings: purified Giardia FBPA; activity, negative = inhibition: at 59.6 µM (top of the series) unless noted.
Sequence of UniProt A8B2U2 (A8B2U2 whole entry, looked up): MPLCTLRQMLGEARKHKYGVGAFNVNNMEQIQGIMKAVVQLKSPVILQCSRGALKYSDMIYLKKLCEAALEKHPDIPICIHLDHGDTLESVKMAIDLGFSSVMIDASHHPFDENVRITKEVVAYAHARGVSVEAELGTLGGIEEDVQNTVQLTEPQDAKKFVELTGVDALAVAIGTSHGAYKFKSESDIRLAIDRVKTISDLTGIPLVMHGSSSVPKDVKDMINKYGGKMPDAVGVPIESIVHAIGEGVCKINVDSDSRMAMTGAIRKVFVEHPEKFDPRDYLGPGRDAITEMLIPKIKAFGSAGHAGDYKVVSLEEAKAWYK
In short: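 Giardia FBPA (40 nM reagent) was preincubated 10 min at RT with compound (up to 57.5 uM final), then substrate plus GAPDH/TPI/NAD/arsenate coupling system with diaphorase/resazurin was added; resorufin fluorescence (525/598 nm) was read after 20 min.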
For N#CC(C#N)=Cc1ccc(C=C(C#N)C#N)cc1, the Potency was inconclusive: 17.7 µM [inhibitor, partial curve].
COc1ccc(N=C2C(=Nc3ccc(OC)cc3)N(c3ccc(OC)cc3)C(=S)N2C(=O)c2ccc(OC)cc2)cc1 was tested, and the “activity, negative = inhibition” value was inactive: 2.5%.
COC(=O)c1ccccc1OCCCOc1ccc(C=O)cc1OC was tested, and the “activity, negative = inhibition” value was inactive: -6.69%.
With Cc1ccc([N+](=O)[O-])cc1N/C=C1\CCc2ccccc2C1=O the Potency was inconclusive: 3.15 µM [inhibitor, full curve].
In the case of CCOC(=O)Cc1ccc(NCc2ccc(Cl)cc2)cc1, the Potency is reported as inconclusive: 17.7 µM [inhibitor, partial curve].
In the case of CC(=O)c1cccc(Nc2nc(-c3sc(N)nc3C)cs2)c1, the Potency is reported as inconclusive: 3.55 µM [inhibitor, partial curve].
COc1cc(CN2CCC(C(=O)N3CCCC(C)C3)CC2)cc(OC)c1O (stereo not given) was tested, and the Potency was inconclusive: 19.9 µM [inhibitor, partial curve].
With COc1ccc(C(C[N+](=O)[O-])c2c(C)[nH]n(-c3ccccc3)c2=O)cc1 (stereo not given) the Potency was inconclusive: 11.2 µM [inhibitor, partial curve].
For O=C1CN(C(=O)CSc2nc3cc(Cl)ccc3c(=O)n2Cc2ccccc2)c2ccccc2N1, the “activity, negative = inhibition” value was inactive: 7.21%.
CCN(CC(=O)NCCCn1ccnc1)S(=O)(=O)c1ccc(C)cc1 was tested, and the “activity, negative = inhibition” value was inactive: -5.72%.
For CC(=O)NCc1ccc2[nH]c(C)cc2c1, the Potency was inconclusive: 9.98 µM [inhibitor, partial curve].
COc1ccc(Nc2c([N+](=O)[O-])ccc3c2=NC2(CCCCC2)N=3)cc1 was tested, and the Potency was inconclusive: 19.9 µM [inhibitor, partial curve].
In the case of CC(C)(C)c1cc(C(=O)NNC(=O)Nc2ccccc2)n(Cc2ccccc2)n1, the “activity, negative = inhibition” value is reported as inactive: 1.95%.
For Cc1nc2nc(-c3cccnc3)nn2c(C)c1Cl, the “activity, negative = inhibition” value was inactive: 3.35%.
With COc1ccccc1N1CCN(Cc2cccc(Br)c2)CC1 the Potency was inconclusive: 25.1 µM [inhibitor, partial curve].
With COc1ccc(Cl)cc1NC(=S)N(CCCN1CCOCC1)Cc1cn(C)c2ccccc12 the Potency was inconclusive: 35.4 µM [inhibitor, single point].
COc1ccc(C(=O)NC(=S)N2CCCCC2)cc1[N+](=O)[O-] was tested, and the Potency was inconclusive: 12.6 µM [inhibitor, partial curve].
For CN(C)C(=O)Oc1ccc(-c2cn3cc(Cl)ccc3n2)cc1, the “activity, negative = inhibition” value was inactive: -18.4%.
Cc1cc(C)nc(NS(=O)(=O)c2ccc(NC(=O)c3ccccc3[N+](=O)[O-])cc2)n1 was tested, and the Potency was inconclusive: 15.8 µM [inhibitor, partial curve].
With Cc1ccc(NC(=O)CNCc2ccccn2)cc1S(=O)(=O)N(C)C the Potency was inconclusive: 25.1 µM [inhibitor, single point].
CC(=O)N(C)C1=C(N2CCOCC2)C(=O)c2ccccc2C1=O was tested, and the Potency was inconclusive: 0.794 µM [inhibitor, full curve].
In the case of CCOc1ccc(C(=O)CSCCC(=O)O)cc1, the Potency is reported as inconclusive: 28.1 µM [inhibitor, single point].
For CC1=C(C)/C(=N\OS(=O)(=O)c2ccc(C)cc2)C=CC1=O, the Potency was active: 3.97 µM.
In the case of O=C(NC(=S)Nc1ncccn1)c1ccccc1Br, the Potency is reported as active: 3.98 µM.
In the case of CSc1nc2nc3c(cc2c(=O)n1-c1ccccc1)COC(C)(C)C3, the Potency is reported as inconclusive: 17.7 µM [inhibitor, single point].
With Cc1ccc(Nc2n[nH]c(C)c2[N+](=O)[O-])cc1 the “activity, negative = inhibition” value was inactive: 3.96%.
In the case of COCCCNC(=O)CCc1nnc(Cc2ccc(-c3ccccc3)cc2)o1, the “activity, negative = inhibition” value is reported as inactive: 0.498%.
For C=CCn1c(C2CC2)n[nH]c1=S, the Potency was inconclusive: 5 µM [inhibitor, full curve].
For Cc1noc(NS(=O)(=O)c2ccc(NC(=O)CC(C)C)cc2)c1C, the “activity, negative = inhibition” value was inactive: -2.98%.
With CC(=O)c1ccc(COC(=O)c2cc3ccccc3oc2=O)cc1 the “activity, negative = inhibition” value was inactive: 6.99%.
Cc1ccc(Nc2nc3ccccc3c(=O)[nH]2)cc1C was tested, and the “activity, negative = inhibition” value was inactive: 4.4%.
For CCN(Cc1ccccc1)S(=O)(=O)c1ccc(C(=O)Nc2nnc(C)o2)cc1, the Potency was inconclusive: 17.8 µM [inhibitor, partial curve].
With CC(C)(C)C1=CC(=O)C(=O)C(C(C)(C)C)=C1 the Potency was active: 7.06 µM.
For Cc1ccc(C(=O)Nc2nc(-c3ccccn3)cs2)o1, the Potency was active: 12.6 µM.
Cc1ccc(C(C[N+](=O)[O-])n2nc(C)cc2C)cc1 (stereo not given) was tested, and the “activity, negative = inhibition” value was inactive: -2.01%.
O=C(Nc1ccccc1C(=O)O)c1ccc(CN2C(=O)c3ccccc3C2=O)cc1 was tested, and the Potency was inconclusive: 28.2 µM [activator, single point].
With O=S(=O)(Nc1ncccn1)c1cc(Cl)ccc1Cl the Potency was inconclusive: 35.5 µM [inhibitor, single point].
With C=CCOc1cccc(C2C(C(=O)c3cc4ccccc4o3)=C(O)C(=O)N2c2cc(C)on2)c1 (stereo not given) the Potency was inconclusive: 25.1 µM [activator, partial curve].
For CCOC(=O)C(C)(C)Sc1ncnc2nc[nH]c12, the Potency was inconclusive: 17.7 µM [inhibitor, single point].
For COc1cccc(Nc2ncc3nc(-c4ccccc4)c(=O)n(C)c3n2)c1, the “activity, negative = inhibition” value was inactive: -3.52%.
With CC1=CC(=O)C=C(C)C1=NOC(=O)/C=C\c1ccccc1 the Potency was inconclusive: 14.1 µM [inhibitor, partial curve].
With OC(CNc1ccccc1)Cn1ccc2ccccc21 (stereo not given) the Potency was active: 17.7 µM.
In the case of O=C(CSCc1ccc(Cl)cc1)Nc1ccc2c(c1)OCCO2, the “activity, negative = inhibition” value is reported as inactive: -1.87%.
Cc1ccc2oc(=O)c(/C=C(\O)c3cccs3)nc2c1 was tested, and the Potency was inconclusive: 17.7 µM [inhibitor, single point].
In the case of O=C1CC2C(CC(OC(=O)c3ccc(-c4ccccc4)cc3)C2CO)O1 (stereo not given), the “activity, negative = inhibition” value is reported as inactive: 1.06%.
O=C(c1ccco1)N1CCC2(CC1)CCN(c1ccccn1)CC2 was tested, and the “activity, negative = inhibition” value was inactive: -1.67%.
In the case of O=C(O)c1ccc(NCCC2=CCCCC2)c([N+](=O)[O-])c1, the Potency is reported as inconclusive: 17.7 µM [activator, single point].
In the case of COC(=O)c1ccc(C)c(-n2c(=O)n(Cc3ccccc3)c(=O)c3[nH]cnc32)c1, the Potency is reported as inconclusive: 11.2 µM [inhibitor, partial curve].
For COc1ccccc1C1=Nn2c(nnc2C2CCCCC2)SC1, the Potency was inconclusive: 5.61 µM [activator, single point].
With Cc1[nH]c2ccccc2c1CCNCc1cccnc1 the Potency was inconclusive: 31.6 µM [inhibitor, single point].
In the case of Cc1cc(=O)n2[nH]c(NCc3c(F)cccc3Cl)nc2n1, the Potency is reported as inconclusive: 17.7 µM [inhibitor, single point].
For CCOC(=O)c1cccc(OCC(O)CNCCOc2ccccc2F)c1 (stereo not given), the Potency was inconclusive: 15.8 µM [inhibitor, partial curve].
With COC1CCN(C(=O)CC2C(=O)NCCN2CC(C)(C)C)CC1 (stereo not given) the Potency was inconclusive: 19.9 µM [inhibitor, partial curve].
For O=C(/C=C/c1ccccc1)Nc1ccc2c(c1)C(=O)NC2=O, the “activity, negative = inhibition” value was inactive: -0.591%.
With N#Cc1cc2c(N)c(C(=O)Nc3ccccc3)sc2nc1N the activity, negative = inhibition was inconclusive: 37.7% [activator].
For CCCn1c(SCC(=O)c2ccc3c(c2)OCCO3)nnc1C(C)C, the Potency was inconclusive: 22.4 µM [inhibitor, single point].
c1ccc(-c2ccccc2OCCCCn2ccnc2)cc1 was tested, and the Potency was inconclusive: 15.8 µM [inhibitor, partial curve].
With CCOC(=O)c1sc(=S)n(-c2ccc(C)cc2)c1N the Potency was inconclusive: 17.7 µM [inhibitor, partial curve].
In the case of CCOC(=O)C1CCCN(C2=NC(=O)/C(=C/c3ccc(O)c(OC)c3)S2)C1 (stereo not given), the “activity, negative = inhibition” value is reported as inactive: -2.63%.
In the case of CCCOc1ccccc1C1C(C(=O)OC)=CN(C(C)C)C=C1C(=O)OC, the “activity, negative = inhibition” value is reported as inactive: 1.29%.
With CC1CCCN(C(=O)CSc2nc3ccccc3o2)C1 (stereo not given) the “activity, negative = inhibition” value was inactive: 3.46%.
With Cc1ccc(C(=O)N/N=C\c2ccccn2)cn1 the Potency was active: 7.92 µM.
For CCCCOc1ccc(N=Cc2cccs2)cc1, the “activity, negative = inhibition” value was inactive: 2.72%.
For CCOc1ccc(-c2nc(C#N)c(NC3CC3)o2)cc1, the Potency was inconclusive: 17.8 µM [inhibitor, partial curve].
In the case of CN(Cc1ccco1)c1ncnc2ccc(-c3cccnc3)cc12, the Potency is reported as inconclusive: 17.7 µM [inhibitor, single point].
With COCCCNCCCCOc1c(Cl)cc(C)cc1Br the Potency was inconclusive: 19.9 µM [inhibitor, partial curve].
For O=C(COc1ccc(Cl)cc1)NNC(=O)c1ccccn1, the Potency was inconclusive: 5.61 µM [inhibitor, single point].
In the case of COc1ccc(-c2ccc3nnc(SCC(N)=O)n3n2)cc1, the “activity, negative = inhibition” value is reported as inactive: -21.4%.
In the case of COCC1CCCCN1Cc1cn[nH]c1-c1ccc(OC)cc1OC (stereo not given), the “activity, negative = inhibition” value is reported as inactive: 0.66%.
With CCn1ncc(NC(=S)Nc2ccc(OC)c(OC)c2)c1C(N)=O the Potency was active: 15.8 µM.
In the case of CN(C)C=Nc1nonc1-c1ncn[nH]1, the Potency is reported as inconclusive: 12.6 µM [inhibitor, partial curve].
For S=c1[nH]ncn1/N=C/c1ccccn1, the Potency was inconclusive: 11.2 µM [inhibitor, partial curve].
For Cc1ccc(S(=O)(=O)N2CCOCC2)cc1C(=O)NC(=S)N1CC(C)OC(C)C1 (stereo not given), the Potency was inconclusive: 17.7 µM [inhibitor, partial curve].
For CN1CCc2nc3sc(C(=O)NC(C)(C)C)c(N)c3cc2C1, the Potency was inconclusive: 31.5 µM [inhibitor, single point].
CC(C)C[C@H](NC(=O)[C@H](C)NC(=O)CNC(=O)[C@H](CCCCN)NC(=O)[C@H](CCCN=C(N)N)NC(=O)[C@H](C)NC(=O)[C@H](Cc1ccccc1)NC(=O)[C@@H](N)CCCN=C(N)N)C(=O)N[C@@H](CCCN=C(N)N)C(=O)N[C@@H](CCC(N)=O)C(=O)N[C@@H](CCCCN)C(=O)N[C@@H](CC(N)=O)C(=O)N[C@H](C(N)=O)C(C)C was tested, and the “activity, negative = inhibition” value was inactive: 4.81%.
